Each structure is given as a SMILES string. Out of some 110,000 compounds screened, about 230 (0.21%) showed an effect of 50% or more. The list shows a part of the results.
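Further: 30 min substrate incubation versus DMSO and 10 µM JCP410 controls.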

Sequence of DPAP1 (Q8IIJ9 whole entry, looked up): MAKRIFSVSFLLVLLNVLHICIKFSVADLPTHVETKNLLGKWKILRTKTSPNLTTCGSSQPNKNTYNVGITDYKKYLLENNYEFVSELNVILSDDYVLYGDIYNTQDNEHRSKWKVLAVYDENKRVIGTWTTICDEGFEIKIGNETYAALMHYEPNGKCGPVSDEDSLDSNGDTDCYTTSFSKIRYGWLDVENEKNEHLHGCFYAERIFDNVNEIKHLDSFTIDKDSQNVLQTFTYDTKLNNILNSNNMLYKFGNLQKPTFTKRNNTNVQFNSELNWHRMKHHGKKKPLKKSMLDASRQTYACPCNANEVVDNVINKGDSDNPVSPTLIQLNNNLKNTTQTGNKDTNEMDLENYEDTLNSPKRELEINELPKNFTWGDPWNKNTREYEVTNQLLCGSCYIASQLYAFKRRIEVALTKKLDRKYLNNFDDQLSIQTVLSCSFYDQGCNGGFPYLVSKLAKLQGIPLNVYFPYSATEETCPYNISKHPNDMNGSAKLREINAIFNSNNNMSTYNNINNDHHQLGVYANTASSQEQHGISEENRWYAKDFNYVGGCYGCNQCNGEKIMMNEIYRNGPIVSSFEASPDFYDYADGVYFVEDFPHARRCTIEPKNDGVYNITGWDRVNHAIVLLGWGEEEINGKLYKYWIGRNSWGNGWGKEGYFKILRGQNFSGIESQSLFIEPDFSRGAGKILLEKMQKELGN

This experiment has as its target DPAP1 (Plasmodium falciparum, UniProt Q8IIJ9). The experiment can be described thus: primary screen, percent inhibition; read by cleavage of a fluorogenic dipeptide substrate; higher = more effect of the substance. Set-up: species or system P. falciparum D10 trophozoite lysates; single well.
As to `Cc1ccc2[nH]c3c(c2c1)CCCC3NCc1ccc(Cl)cc1` (stereo not shown), the “% Inhibition @ 10 uM” value is listed as 4.42%. For `Cc1nc(-c2ccccc2)nc2[nH]c(-c3ccccc3)cc12` the value was 4.63%; for `Cc1ccccc1OCCCCCCc1c(C)n[nH]c1C`, -2.12%. Take `CCOc1cc(CNCc2c(C(=O)O)n(C)c3cc(OC)ccc23)ccc1OC`: the “% Inhibition @ 10 uM” value came to 4.67%. For `CN1C(=O)S/C(=C/c2ccc(-c3ccc(F)cc3)o2)C1=O` the value was -4.7%.

`CC(C)OCCCNC(=O)CCc1nnc2n(Cc3ccccc3Cl)c(=O)c3ccccc3n12`: the “% Inhibition @ 10 uM” value is recorded as -0.692%. Take `CC1CN(Cc2ccccc2F)CC(C)O1` (stereo not shown): the “% Inhibition @ 10 uM” value is -1.41%.

In the case of `COc1ccccc1-c1cc(C(=O)Nc2cc(C)nn2-c2ccccc2)no1`, the “% Inhibition @ 10 uM” value was determined as 23.6%.

As for `Cc1ccc2c(c1)/C(=C1/SC(=S)NC1=O)C(=O)N2`, the “% Inhibition @ 10 uM” value is given as 0.878%. For `Cc1ccc2c(c1Br)C1(C(=O)N2)C(C#N)=C(N)OC2=C1C(=O)CC(c1ccccc1)C2` (stereo not shown) the value was 19.7%. As to `O=C(NCc1ccc2c(c1)OCO2)Nc1ccccc1`, the “% Inhibition @ 10 uM” value was -3.53%.

Consider `CN(C)C(=O)C12CCC(C)(c3nc4cc(Cl)c(Cl)cc4nc31)C2(C)C` (stereo not shown), for which the “% Inhibition @ 10 uM” value is given as -2.98%. In the case of `Cc1nc(-c2ccc(S(=O)(=O)N3CCCC3)cc2)cs1`, the “% Inhibition @ 10 uM” value is reported as -1.43%. As for `O=C(CSc1nc(O)c2cnn(-c3ccc(Cl)cc3)c2n1)N1CCOCC1`, the figure is -3.35%; as for `COc1cccc(N(C(=O)c2ccccc2)C2CC(C)N(C(C)=O)c3ccccc32)c1` (stereo not shown), -1.44%; as for `CCN(Cc1ccccc1)C(=O)c1c(Cl)nc(C)c(Cl)c1C`, -4.35%. On to `Cc1ccc(S(N)(=O)=O)cc1NC(=O)C1CC2CCC1C2` (stereo not shown), for which the “% Inhibition @ 10 uM” value was -1.96%. In the case of `CCN(CCO)Cc1csc2ccc(C(C)(C)C)cc12`, the “% Inhibition @ 10 uM” value is 0.408%. For `CN1CCN(CC(O)Cn2cc(/C=C/C(=O)c3ccc(Br)cc3)c3ccccc32)CC1` (stereo not shown) the value was 1.64%; for `CCC1CCCCN1C1CC(=O)N(c2ccccc2)C1=O` (stereo not shown), 2.38%.

For `COc1ccc(NCC(=O)Nc2ccc(F)cc2)cc1`, the “% Inhibition @ 10 uM” value was -4.59%. `CC(NC(=O)c1cccc(NC(=O)c2ccccc2)c1)c1ccccc1` (stereo not shown): the “% Inhibition @ 10 uM” value is 5.14%.

As for `Cc1ccc(OC(C)C(=O)Nc2cccc3ccccc23)cc1` (stereo not shown), the “% Inhibition @ 10 uM” value turned out to be 5.69%. For `O=C1C2C3C=CC(C3)C2C(=O)N1c1ccc(N2C(=O)C3C4CCC(C4)C3C2=O)cc1` (stereo not shown) the value was 0.674%. On to `Cc1ccn(-c2ccccc2)n1`, for which the “% Inhibition @ 10 uM” value is on record as -4.74%. For the molecule `CCOC(=O)C1=C(CC)OC(N)=C(C#N)C1c1ccccc1` (stereo not shown), the “% Inhibition @ 10 uM” value is given as -8.76%. For `COc1ccc(OC)c2c(C)cc(C)nc12` the value was 3.32%. As to `CCn1c2ccccc2c2cc(NC(=O)c3ccc4ccccc4c3)ccc21`, the “% Inhibition @ 10 uM” value is -1.69%.

As to `Cc1ccc(C)c(CN2CCN(c3ccccc3F)CC2)c1`, the “% Inhibition @ 10 uM” value was 3.16%. For the molecule `Cc1ccc(CNC(=O)C(Cc2ccccc2)NS(=O)(=O)c2cccs2)cc1` (stereo not shown), the “% Inhibition @ 10 uM” value is given as -2.49%.

For the molecule `Cc1ccc2oc(=O)c3cc(C(=O)N4CCCC(C)C4)sc3c2c1` (stereo not shown), the “% Inhibition @ 10 uM” value was -1.84%. For `O=C(Nc1nc(-c2ccccc2)cc(C(F)(F)F)n1)NS(=O)(=O)Oc1ccccc1Cl`, the “% Inhibition @ 10 uM” value came out at 1.03%. For `CCC1CCCCN1CCCNC(=O)Cn1nc(C)n2c(cc3c(OC)cccc32)c1=O` (stereo not shown) the value was 4.65%; for `O=C(O)C1CCCCC1C(=O)NC1CCCC1` (stereo not shown), 0.431%. Regarding `Nc1nc(Cc2ccsc2)nc2sc3c(c12)CCCC3`, the “% Inhibition @ 10 uM” value is reported as 49.8%. As for `COc1ccc(OC)c(/C=C2\C(=O)NC(=O)N(C)C2=O)c1`, the “% Inhibition @ 10 uM” value was 5.12%. For `CCCCc1ccc(NC(=O)c2ccoc2C)cc1` the value was 1.57%; for `CCc1n(CC(O)COCc2ccccc2)c2ccccc2[n+]1C` (stereo not shown), 1.31%; for `O=C(c1ccc(Br)cc1)N1CCN(c2ccccc2)CC1`, -3.85%. As for `Cc1cccc(C)c1NC(=O)CN1C(=O)S/C(=C\c2cccn2C)C1=O`, the figure is -16.7%. With `COc1cc2c(cc1OC)C(C(=O)NC1CCCCC1)C(c1ccccc1F)N(C)C2=O` (stereo not shown), the “% Inhibition @ 10 uM” value is recorded as 4.79%.

Turning to `CCOc1ccc(-c2csc(/C(C#N)=C/c3ccccc3OCC)n2)cc1`, the “% Inhibition @ 10 uM” value turned out to be 0.912%. `c1ccc2c(OCCN3CCCC3)cccc2c1`: the “% Inhibition @ 10 uM” value was -1.15%. For `COc1ccccc1C(=O)C1C(=O)NC2(C)CC1c1cc(Cl)ccc1O2` (stereo not shown), the “% Inhibition @ 10 uM” value was 0.907%. With `CCOC(=O)c1c(NC(=O)C2CC=CCC2C(=O)O)sc(C)c1-c1cc(C)ccc1C` (stereo not shown), the “% Inhibition @ 10 uM” value turned out to be 2.32%. As for `CN1C(=O)C(=Cc2ccc(-c3ccc(C(=O)O)c(O)c3)o2)C(=O)N(C)C1=O`, the figure is 24.2%; as for `O=C(Cc1cccc2ccccc12)Nc1nc2ccc(Br)cc2s1`, -6.91%; as for `O=C(Cn1ncc2c3ccccc3nc-2c1O)N(CCCN1CCOCC1)Cc1ccco1`, -4.27%.

For the molecule `CCN1CCN(C(=O)C(C)n2nc(C)c3sc4ccccc4c3c2=O)CC1` (stereo not shown), the “% Inhibition @ 10 uM” value was -3.1%.

Regarding `CC(C)(C)c1ccc(OCC(=O)Nc2ccncc2)c(Br)c1`, the “% Inhibition @ 10 uM” value is listed as 0.214%. For `Fc1cccc(Cl)c1CN1CCN(c2ccc(Cl)cc2)CC1`, the “% Inhibition @ 10 uM” value is -5.11%. For the molecule `CCC(C)N(CCNC(=O)CS(=O)(=O)Cc1nc(-c2ccc(C)cc2)oc1C)C1CCCCC1` (stereo not shown), the “% Inhibition @ 10 uM” value was -1.89%. For `COc1cccc(CNCc2ccccc2Br)c1OC` the value was 1.92%.

For the molecule `Cc1ccc(N2CCCn3c2cc(C)c(C#N)c3=O)cc1Cl`, the “% Inhibition @ 10 uM” value was -1.38%. For `Cc1ccc(CNC(=O)c2cccc3c2SCCC3=O)cc1` the value was -4.42%; for `O=C(Cc1ccc(Cl)cc1)Nc1ccc2c(c1)C(=O)N(CC1CCCO1)C2=O` (stereo not shown), 3.86%; for `Cc1cccc(NC(=O)CCCOc2ccc(Cl)cc2Cl)n1`, -1.03%. As for `O=C1CC(c2ccccc2Br)c2cc3c(cc2N1)OCO3` (stereo not shown), the figure is -5.23%; as for `CN1C(=O)c2ccc(C(=O)Nc3cccc(C(=O)O)c3)cc2C1=O`, -5.3%; as for `CC(CC1OCC(CN2CCCCC2)O1)CC(C)(C)C` (stereo not shown), 6.24%. For `Cc1ccc2c(c1)c1c(n2CC(O)CN2CCOCC2)CCCC1` (stereo not shown) the value was -0.994%. Take `COc1ccc(C2=NOC(C(=O)NC(C)c3ccccc3)C2)cc1` (stereo not shown): the “% Inhibition @ 10 uM” value is -5.25%. As for `CCOc1ccc(CCNC(=O)C2CCN(S(=O)(=O)c3c(C)nn(C)c3C)CC2)cc1OCC`, the figure is 4.01%; as for `COc1ccc(-c2csc(-c3nc(-c4ccc(OC)c(OC)c4)cs3)n2)cc1OC`, 2.79%. For `COc1ccccc1C(=O)N1CCN(Cc2cccc(Cl)c2)CC1` the value was 7.71%; for `CC(C(=O)N1CCN(C2CCCCC2)CC1)n1sc2ccccc2c1=O` (stereo not shown), -8.05%. Regarding `CC1=NN(c2nc(C)cc(C)n2)C(=O)C1Cc1ccccc1` (stereo not shown), the “% Inhibition @ 10 uM” value is listed as -11.3%. For `CCOc1cc(C2C(C(=O)c3cc4ccccc4o3)=C(O)C(=O)N2CCN2CCOCC2)ccc1O` (stereo not shown) the value was -0.28%. For `COc1ccc(C)cc1NC(=O)CC(C)C` the value was -1.98%; for `CCOCCCNCc1c(C(=O)O)n(Cc2cc(C)ccc2C)c2ccccc12`, 0.277%; for `Cc1nc2cccnc2n1-c1ccc(CC(=O)NC2CCCCCC2)cc1`, -1.83%. For `O=C(Nc1ccc2oc(-c3ccccc3F)nc2c1)c1nc[nH]n1` the value was 3.72%; for `O=C(NCC1CCCO1)C1CCC(CNS(=O)(=O)c2cccc3cccnc23)CC1` (stereo not shown), -2.42%; for `CCCCn1/c(=N\C(=O)c2ccc3c(c2)OCO3)c(C(=O)OCC)cc2c(=O)n3ccccc3nc21`, 1.26%. In the case of `N#CC1=C(N)Oc2cc(O)ccc2C1c1cccc2ccccc12` (stereo not shown), the “% Inhibition @ 10 uM” value is on record as -2.8%. For `COc1ccc(C)cc1N(CC(=O)Nc1cc(C)cc(C)c1)S(C)(=O)=O` the value was -4.13%; for `Cc1sc2nc(-c3cccnc3)nc(O)c2c1C`, -5.92%. For `Cc1cccc(NC(=O)C(O)C(O)C(=O)Nc2cccc(C)c2)c1` (stereo not shown) the value was 7.35%.

On to `CCCN1C(=O)c2[nH]nc(-c3ccc(F)cc3)c2C1c1ccc(O)c(OC)c1` (stereo not shown), for which the “% Inhibition @ 10 uM” value is recorded as -1.07%.

`CC1CN(C(C)Cc2ccc(F)cc2)CC(C)O1` (stereo not shown): the “% Inhibition @ 10 uM” value is -3.5%. As to `COCCNC(=O)c1oc2ccc3c(c2c1C)C(O)CC(C)(C)O3` (stereo not shown), the “% Inhibition @ 10 uM” value is listed as 3.14%. On to `CC[C@H](C)[C@@H](CS(=O)(=O)N[C@@H](CCc1ccccc1)C(=O)c1nc2ccccc2o1)NC(=O)OCc1ccccc1`, for which the “% Inhibition @ 10 uM” value was -2.03%. As for `CCOc1ccc(NC(=O)CN(c2ccc(C)c(Cl)c2)S(C)(=O)=O)cc1`, the figure is -0.185%; as for `COc1ccc(CN2CCN(Cc3ccccc3C(F)(F)F)CC2)c(OC)c1OC`, 1.78%; as for `O=C1c2ccc(Br)cc2C(=O)N1C1c2ccccc2Oc2ccccc21`, 18.3%. For `NC(=O)c1c(-c2ccc(Cl)cc2)csc1NC(=O)C1CC=CCC1C(=O)O` (stereo not shown) the value was -3.58%. For `c1cc2c(cc1CCNC1C3CC4CC(C3)CC1C4)OCO2` (stereo not shown), the “% Inhibition @ 10 uM” value is reported as 1.28%. As for `Cc1cc(C)c2c(=O)n(CC(=O)NC3CCCC(C)C3C)sc2n1` (stereo not shown), the figure is 12%. As for `CCN1CCN(C(=O)C2CC(c3ccc(OC)cc3)=NO2)CC1` (stereo not shown), the figure is 1.62%; as for `CC1(C)CC2=Nc3nc(SCCN4CCOCC4)nc(O)c3C(c3ccc(F)cc3)C2=C(O)C1` (stereo not shown), -6.29%.

As to `Cc1[nH]nc(NCc2ccccc2)c1[N+](=O)[O-]`, the “% Inhibition @ 10 uM” value is recorded as 0.716%.

Turning to `O=C1CCCC2=C1C(c1ccc(Cl)cc1)N1C(=O)CCSC1=N2` (stereo not shown), the “% Inhibition @ 10 uM” value was -6.07%.

Consider `Cc1ccc(S(=O)(=O)c2nc(-c3ccco3)oc2N2CCC(C)CC2)cc1`, for which the “% Inhibition @ 10 uM” value is recorded as 3.36%. In the case of `Cc1c(C(=O)NCCN2CCOCC2)sc2nc(-c3ccc(F)cc3)cn12`, the “% Inhibition @ 10 uM” value is -3.7%. For `O=C(NCc1ccccc1)c1ccccc1C(=O)N1CCCCC1` the value was 11.3%. As to `c1ccc(Cn2ncc3c2ncn2nc(-c4ccncc4)nc32)cc1`, the “% Inhibition @ 10 uM” value is on record as 2.17%. As for `COc1ccc(-c2cc(C(=O)NCC(C)C)no2)cc1OC`, the figure is -0.591%. As for `O=C(O)c1cc(C(=O)O)cc(C23CC4CC(CC(C4)C2)C3)c1`, the figure is 2.44%.

On to `CCCC(=O)O/N=C(\c1ccccc1)c1ccncc1`, for which the “% Inhibition @ 10 uM” value was -4.74%. With `Cc1cc(/C=N\OCc2ccccc2)c(C)n1-c1ccc(F)cc1`, the “% Inhibition @ 10 uM” value was 1.13%.
